# Reference: the supplement of paper PMC12217912
# This is one part of the list. The full chains were built here from the parent and the listed change. Inactive controls read about 0.05.
# B1: TEV protease; numbered along this chain (parent)
# chain: MGESLFKGPRDYNPISSSICHLTNESDGHTTSLYGIGFGPFIITNKHLFRRNNGTLVVQSLHGVFKVKDTTTLQQHLVDGRDMIIIRMPKDFPPFPQKLKFREPQREERICLVTTNFQTKSMSSMVSDTSCTFPSGDGIFWKHWIQTKDGQCGSPLVSTRDGFIVGIHSASNFTNTNNYFTSVPKNFMELLTNQEAQQWVSGWRLNADSVLWGGHKVFMVKPEEPFQPVKEATQL
# Variants of: B1
# Assay: raw area under fraction-flipped curve 0-4 h after induction (AUC4h, not background-subtracted), DNA-recorder readout of cleavage of the substrate (dimensionless); higher = more cleavage of the substrate by the protease variant
# Conditions: temperature: 34 °C; time window: 0-4 h after rhamnose induction
# 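Also: Bxb1 expression induced with 0.2% (w/v) L-rhamnose at OD600 near 0.5, cultures sampled hourly, flipped fraction per protease–substrate barcode pair counted by paired-end Illumina sequencing.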
Variant,area with substrate ENLYFFS,area with substrate ENLYFHS,area with substrate ENLYFLS,area with substrate ENLYFPS,area with substrate ENLYFTS,area with substrate ENLYFVS,area with substrate ENLYFYS,area with substrate ENLYFGS,area with substrate ENLYFIS,area with substrate ENLYFWS,area with substrate ENLYFKS,area with substrate ENLYFMS,area with substrate ENLYFNS,area with substrate ENLYFSS,area with substrate ENLYFES,area with substrate ENLYFRS
MGESLFKGPIDYNPISSSICHLTNESDGHTTSLYGIGFGPFIITNKHLFRRNNGTLVVQSLHGVFKVKDTTTLQQHLVDGRDMIIIRMPKDFPPFPQKLKFREPQREERICLVTTNFQTKSMSSMVSDTSCTFPSGDGIFWKHWIQTKDGQCGSPLVSTRDGFIVGIHSASNFTNTNNYFTSVPKNFMELLTNQEAQQWVSGWRLNADSVLWGGHKVFMVKPEEPFQPVKEATQL [R10I],0.0634,0.0704,0.0686,0.0561,0.0675,0.0486,0.0586,,,,,,,,,
MGESLFKGPRDYNPISSSICHLTNESDGHTTSLYLIGFGPFIITNKHLFRRNNGTLVVQSLHGVFKVKDTTTLQQHLVDGRDMIIIRMPKDFPPFPQKLKFREPQREERICLVTTNFQTKSMSSMVSDTSCTFPSGDGIFWKHWIQTKDGQCGSPLVSTRDGFIVGIHSASNFTNTNNYFTSVPKNFMELLTNQEAQQWVSGWRLNADSVLWGGHKVFMVKPEEPFQPVKEATQL [G35L],0.0589,,,0.0448,0.0522,0.0446,0.0516,0.0412,0.049,0.0515,,,,,,
MGESLFKGPRDYNPISSSICHLTNESDGHTTSLYGIGFGPFIITNKHLFRRNNGTLVVQSLHGVFKVKDTTTLQQHLVDGRDMIIIRMPKDFPPFPQKLKFREPQREERICLVTTNFQTKSMSSMVSDTSCTFPSGDGIFWKHWIQTKDGQCGSPLVSTRDGFIVGIHSASNFTNTNNYFTWVPKNFMELLTNQEAQQWVSGWRLNADSVLWGGHKVFMVKPEEPFQPVKEATQL [S182W],0.0737,0.0478,,0.0583,,,0.0764,,0.0542,0.0311,0.0578,0.0509,0.066,0.0876,,
MGESLFKGPRDYNPISSSICHLTNESDGHTTSLYGIGFGPFIITNKHLFRRNNGTLVVQSLHGVFKVKDTTTLQQHLVDGRDMIIIRMPKDFPPFPQKLKFREPQREERICLVTTNFQTKSMSSMVSDTSCTFPSGDGIFWKHWIQTKDGQCGSPLVSTRDGFIVGIHSASNFTNTNNYFTSVPKNFMELLTNQEAQQWVSGWRLNADCVLWGGHKVFMVKPEEPFQPVKEATQL [S209C],0.0747,,,,0.0625,,0.0601,0.0586,0.0532,0.0599,0.0772,0.0742,,,0.0531,
MGESLFKGPRDYNPISSSICHLTNESDGHTTSLYGIGFGPFIITNKHLFRRNNGTLVVQSLHGVFKVKDTTTLQQHLVDGRDMIIIRMPKDFPPFPQKLKFREPQREERICLVTTNFQTKSMSSMVSDTSCTFPSGDGIFWKHWIQTKDGQCGSPLVSTRDGFIVGIHSASNFTNTNNYFTSVPKNFMELLTNQEAQQWVSGWRLNADSVLWGGHKVFLVKPEEPFQPVKEATQL [M219L],,0.054,,0.0561,,,,,0.006,0.0532,,,,0.063,0.0102,0.0544
MGESLFKGPRDYNPISSSICHLTNESDGHTTSLYGIGFGPFIITNKHLFRRNNGTLVVQSLHGVFKVKDTTTLQQHLVDGRDMIIIRMPKDFPPFPQKLKFREPQREERICLVTTNFQTKSMSSMVSDTSCTFPSGDGIFWKHWIQTKDGQCGSPLVSTRDGFIVGIHSASNFTNTNNYFTSVPKNFMELLTNQEAQQWVSGWRLNADSVLWGGHKVFMVTPEEPFQPVKEATQL [K221T],0.0534,0.0538,0.0573,0.0508,,,,,0.053,,,,0.0802,,0.0709,0.0269
MGESLFKGPRDYNPISSSICHLTNESDGHTTSLYGIGFGPFIITNKHLFRRNNGTLVVQSLHGVFKVKDTTTLQQHLVDGRDMIIIRMPKDFPPFPQKLKFREPQREERICLVTTNFQTKSMSSMVSDTSCTFPSGDGIFWKHWIQTKDGQCGSPLVSTRDGFIVGIHSASNFTNTNNYFTSVPKNFMELLTNQEAQQWVSSWRLNADSVLWGGHKVFMVKPEEPFQPVKEATQL [G202S],0.0757,0.0629,,0.053,,0.0649,0.0629,0.0588,0.0644,0.0563,,0.0585,0.0622,0.0565,0.0557,
MGESLFKGPRDYNPISSSICHLTNESDGHTTSLYGIGFGPFIITNKHLFRRNNGTLVVQSLHGVFKVKDTTTLQQHLVDGRDMIIIRMPKDFPPFPQKLNFREPQREERICLVTTNFQTKSMSSMVSDTSCTFPSGDGIFWKHWIQTKDGQCGSPLVSTRDGFIVGIHSASNFTNTNNYFTSVPKNFMELLTNQEAQQWVSGWRLNADSVLWGGHKVFMVKPEEPFQPVKEATQL [K100N],0.0788,0.0603,,,0.0849,,,0.0692,0.06,,0.0569,0.0702,0.0603,,,0.0537
MGESLFKGPRDYNPISSSICHLTNESDGHTTSLYGIGFGPFIITNKHLFRRNNGTLVVQSLHGVFKVKDTTTLQQHLVDGRDMIIIRMPKDFPPFPQKLKFREPQREERICLVTTNFQTKSMSSMVSDTSCTFPSGDGIFWKHWIQTKDGQCGSPLVSTRDGFIVGIHSASNFTNTNNYFTSVPKNFMELLTNQEAQQWVSGWRLNADSVLWKGHKVFMVKPEEPFQPVKEATQL [G213K],0.08,,,0.0578,0.0506,0.053,0.0533,0.0516,0.0555,0.0556,0.0516,0.0545,0.0895,0.0587,0.058,0.064
MGESLFKGPRDYNPISSSICHLTNESDGHTTSLYGIGFGPFIITNKHLFRRNNGTLVVQSLHGVFKVKDTTTLQQHLVDGRDMIIIRMPKDFPPFPQKLKFREPQREERICLVTTNFQTKSMSSMVSDTSCTFPSGDGIFWKHWIQTKDGQCGSPLVSTRDGFIVGIHSASNFTNTNNYFTSVPKNFMELLYNQEAQQWVSGWRLNADSVLWGGHKVFMVKPEEPFQPVKEATQL [T192Y],0.0763,,,0.062,0.0574,,0.0617,,0.0604,0.0666,,0.0442,,,,
